PubChem BioAssay AID1963576 (National Center for Advancing Translational Sciences (NCATS), 2024)
Among all 46,000 compounds or so, about 60 (0.1%) were called active. Not shown: some 3% with an inconclusive outcome. Calls follow the shape of the dose curve; as a rule, active = well fitted inhibition curve with a large enough effect; inconclusive = small, poorly fitted or top-dose-only effect; inactive = no such curve, though single readings can be large or run the other way. This is one part of the list.

Test: Primary qHTS assay for Inhibitors of ovarian cancer metastasis using an organotypic tumor microenvironment (TME) model. Also: nearly all actives have a fitted effect of over 65% in size.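 As to activity change, negative = inhibition: plate controls were DMSO wells for no effect and tomatine positive control wells for full effect.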
Details: SKOV3ip1-GFP adhesion/invasion on 3D omental model, fluorescence; series mostly up to 45.8 µM; activity change, negative = inhibition: at the top concentration
Outline: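 Primary human omental fibroblast/mesothelial 3D culture pre-formed 48 h. SKOV3ip1-GFP cells added with compounds (0.36-46 umol/L), incubated 2 h RT/16 h 37 C, fixed; GFP cells quantified at 488/509 nm.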

Activity change, negative = inhibition, inactive:
Cc1cccc(C)c1NC(=O)Cn1c(=O)n(CC2CCC(C(=O)NCCc3ccccc3)CC2)c(=O)c2ccccc21 (centres undefined) 44.6%
CC(C)C[C@H](NC(=O)[C@@H](NC(=O)c1cccc(-c2ccccc2)n1)[C@@H](C)O)B(O)O -19.3%
CCOc1ccc2nc(C)cc(Nc3ccccc3OCC)c2c1 3.76%
CCCOc1ccc(CNC(=O)C(CC)n2nc(C)c3sc4ccccc4c3c2=O)cc1 (centres undefined) -5.3%
Cc1ccc(C(=O)O)cc1Nc1nc2ccccc2n2nnnc12 -4.87%
Cc1ccc(Cl)cc1N1CCN(C(=O)CCC(=O)Nc2ccc3nc(N4CCC(C)CC4)cc(C)c3c2)CC1 -4.03%
Cc1ccc(NC(=O)Cn2nnc(-c3nc(-c4ccncc4)no3)c2N)cc1 10.1%
CCOC(=O)c1c(NC(=O)c2ccccc2Cl)sc2c1CCCC2 -0.947%
COCCNC(=O)c1c(C)oc2nc(C)nc(N3CCOCC3)c12 -0.409%
Cc1ccc2c(c1)NC(c1cccnc1)=NC(c1ccc(F)cc1)=N2 -5.99%
CCOc1cc(-c2nc3c(c(CC)nn3-c3ccccc3)c3cc(OC)c(OC)cc23)ccc1O 0.68%
COc1ccc2c(c1)c(CC(=O)O)c(C)n2C(=O)c1ccc(Cl)cc1 8.42%
COc1cccc(-c2nc(CS(=O)(=O)CC(=O)NCc3ccc(C)cc3)c(C)o2)c1 -28.7%
Cc1cccc(OCC(=O)OCc2cc(=O)n3nc(C4CCCCC4)sc3n2)c1 -0.319%
Nc1nc2ccc(OC(F)(F)F)cc2s1 -11%
Cc1ccc(S(=O)(=O)NCC(c2ccc(N(C)C)cc2)N2CCOCC2)cc1 (centres undefined) -1.84%
O=C(NC1CCCCCC1)C1CCN(C(=O)N2CCOc3ccccc32)CC1 28.7%
Cc1ccc(CNC(=O)CCc2c(C)nn(-c3ccc(N4CCCCC4)nn3)c2C)cc1 -6.25%
Cc1ccc(-c2nc3ccccn3c2Nc2ccc3c(c2)OCO3)cc1 2.77%
COc1ccc(C(=O)c2cn(Cc3ccc(F)cc3)c3ccc(C)cc3c2=O)cc1 -7.28%
COc1cc(/C=C(\C#N)c2nc3ccccc3n2C)cc(OC)c1OC 1.39%
Cc1nc(C)c(-c2ccc(SCC(=O)Nc3ccc(F)c(F)c3)nn2)s1 -2.74%
O=c1c2cc3c(cc2nc2sc(Nc4ccc(F)c(Cl)c4)nn12)OCO3 4.6%
COc1cc(OC)c(N(C)C(=O)Cn2ncc3c([nH]c4ccccc43)c2=O)cc1Cl -3.7%
CN(Cc1ccccc1)C(=O)C1CCN(S(=O)(=O)Cc2ccccc2)CC1 1.85%
CCN1CCN(c2oc(/C=C/c3ccccc3OC)nc2C#N)CC1 -8.49%
Cn1c(=O)c2c(-c3cccc(Br)c3)n(CCO)cc2n(C)c1=O 1.71%
CCOc1ccc(CNC(=O)c2cc3ccccn3n2)cc1OC -9.84%
CCc1ccc(CN(Cc2cn[nH]c2-c2ccc(OC)cc2)C(=O)Nc2ccc(C)c(F)c2)cc1 -14.8%
CC1CCN(CCCNC(=O)c2cc(Sc3ccc(F)cc3)nc3ccccc23)CC1 -4.11%
COc1cccc(NS(=O)(=O)c2ccc3[nH]cc(C(=O)N4CCCCCC4)c(=O)c3c2)c1 2.83%
Cc1ccc(-n2c(=O)c3ccc(C(=O)NCc4ccccc4Cl)cc3n(Cc3ccccc3F)c2=O)cc1 -8.72%
CSc1nnc(NC(=O)Cc2coc3cc(C)ccc23)s1 -8.4%
Cc1ccc(NC(=O)c2oc3ccccc3c2NC(=O)c2ccccc2C)cc1 66.3%
COc1ccc(Cn2c(=O)c3cccnc3n(Cc3cccc(OC)c3)c2=O)cc1 -15.7%
CCOC(=O)c1c(-c2ccccc2)oc2ccc(NS(=O)(=O)c3ccc(C)cc3C)cc12 19%
Nc1cccc(-c2cn3ccsc3n2)c1 -6.21%

outcome, inactive:
O=C(NCCCN1CCN(c2ccc(F)cc2)CC1)Nc1ccc(Cl)cc1
Cc1ccc(-c2nnc(SCc3ccccc3C#N)o2)cc1
CCOC(=O)C(CC)n1nc(C)n2c(cc3occc32)c1=O (centres undefined)
Cc1csc2nc(-c3cccc(NC(=O)c4ccccc4Cl)c3)cn12
Cc1ccc(NC(=O)c2cc(S(=O)(=O)N3CCCC(C)C3)cn2C)c(Br)c1 (centres undefined)
CCOC(=O)c1c(-c2ccc(C)cc2)csc1NC(=O)c1nc(SCC)ncc1Cl
O=C(NC1CC(=O)N(c2cccc(F)c2)C1)C1CC1 (centres undefined)
